{"source": "PubChem BioAssay AID1347165", "about": "(National Center for Advancing Translational Sciences (NCATS), 2019)", "note": "In all, about 220,000 compounds went through this assay and about 5,700 (2.6%) were called active. The inconclusive results got no clear call from the source; some entries with a clear call stand among them for comparison. The call rests on the fitted dose curve; in most records, active means well fitted inhibition curve with a large enough effect; inconclusive means small, poorly fitted or top-dose-only effect; inactive means no such curve, though single readings can be large or run the other way. Where the call is inconclusive, the potency comes from a doubtful curve fit. Potency means the concentration at half of the fitted maximal effect; tags describe the fitted curve by direction and shape."}
{"biological_target": "Lysine-specific demethylase 5B (Homo sapiens) (UniProt Q9UGL1)", "sequence (Q9UGL1 whole entry, looked up)": "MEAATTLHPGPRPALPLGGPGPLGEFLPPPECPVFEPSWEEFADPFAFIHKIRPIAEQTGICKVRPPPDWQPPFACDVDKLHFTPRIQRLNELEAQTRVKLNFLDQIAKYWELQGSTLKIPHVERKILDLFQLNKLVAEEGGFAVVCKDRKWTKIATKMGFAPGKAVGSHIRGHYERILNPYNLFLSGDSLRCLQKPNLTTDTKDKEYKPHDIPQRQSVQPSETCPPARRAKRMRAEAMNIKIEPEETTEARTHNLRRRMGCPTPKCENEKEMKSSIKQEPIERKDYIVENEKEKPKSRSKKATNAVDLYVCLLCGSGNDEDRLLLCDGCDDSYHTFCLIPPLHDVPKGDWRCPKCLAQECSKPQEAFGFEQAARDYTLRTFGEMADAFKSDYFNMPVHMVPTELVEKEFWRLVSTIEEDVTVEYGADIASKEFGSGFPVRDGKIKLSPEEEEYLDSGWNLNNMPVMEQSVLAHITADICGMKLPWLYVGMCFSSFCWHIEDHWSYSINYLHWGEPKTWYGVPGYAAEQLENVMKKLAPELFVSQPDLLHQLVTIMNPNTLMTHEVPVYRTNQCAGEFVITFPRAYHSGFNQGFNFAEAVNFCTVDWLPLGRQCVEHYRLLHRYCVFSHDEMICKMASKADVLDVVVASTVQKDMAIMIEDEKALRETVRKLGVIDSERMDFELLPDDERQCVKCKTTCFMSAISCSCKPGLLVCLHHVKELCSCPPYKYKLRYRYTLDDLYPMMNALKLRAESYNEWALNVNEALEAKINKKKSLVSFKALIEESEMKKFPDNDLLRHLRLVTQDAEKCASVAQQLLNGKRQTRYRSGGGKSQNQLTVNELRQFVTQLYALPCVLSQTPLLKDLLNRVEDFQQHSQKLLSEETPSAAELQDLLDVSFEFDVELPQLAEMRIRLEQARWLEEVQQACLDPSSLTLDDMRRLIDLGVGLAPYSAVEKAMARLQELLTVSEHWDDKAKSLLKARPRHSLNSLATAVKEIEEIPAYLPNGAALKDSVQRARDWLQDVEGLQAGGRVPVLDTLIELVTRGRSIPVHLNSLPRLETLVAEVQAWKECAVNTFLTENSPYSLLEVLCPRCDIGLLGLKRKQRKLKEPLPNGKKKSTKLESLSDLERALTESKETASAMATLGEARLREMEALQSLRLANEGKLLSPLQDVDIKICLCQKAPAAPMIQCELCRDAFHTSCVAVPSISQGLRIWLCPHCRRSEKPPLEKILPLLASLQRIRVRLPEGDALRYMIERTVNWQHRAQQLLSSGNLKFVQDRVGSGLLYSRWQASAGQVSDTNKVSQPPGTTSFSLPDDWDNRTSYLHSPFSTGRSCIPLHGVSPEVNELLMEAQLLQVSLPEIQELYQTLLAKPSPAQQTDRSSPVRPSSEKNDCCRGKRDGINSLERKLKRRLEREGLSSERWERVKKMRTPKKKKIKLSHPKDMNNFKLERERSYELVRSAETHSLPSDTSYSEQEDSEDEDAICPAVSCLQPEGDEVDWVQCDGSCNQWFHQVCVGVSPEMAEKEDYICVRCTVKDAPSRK", "experiment": "Primary screen for KDM5B Histone Demethylases FDH-coupled qHTS; further: nearly all actives have a fitted effect of over 70% in size; on activity change, negative = inhibition: 0% is about no effect", "conditions": "FDH-coupled NADH fluorescence (FDH is formaldehyde dehydrogenase); activity change, negative = inhibition: at 57.7 µM (top of the series) unless noted", "summary_of_the_method": "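qHTS format, multiple compound concentrations. Buffer 50 mM HEPES pH 7.5/0.01% Tween-20; 200 nM KDM5BΔAP final; 10 min compound preincubation; substrate-mix levels 12.5 µM peptide, 25 µM α-KG, 0.25 mM NAD⁺; 30 min RT; ΔRFU.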"}
{"smiles": "CC(C)CN1C(=O)c2cccn2CC1C(=O)NCCN1CCCC1", "note": "(stereo unspecified)", "Potency": "inconclusive: 28.2 µM [inhibitor, partial curve, poor fit]"}
{"smiles": "CN(c1ccccc1)c1cc(=O)c2ccnc(Nc3cccnc3)c2o1", "Potency": "inconclusive: 35.5 µM [inhibitor, single point]"}
{"smiles": "CC1Sc2ccc(S(=O)(=O)NC3CCN(Cc4ccccc4)CC3)cc2NC1=O", "note": "(stereo unspecified)", "Potency": "inactive"}
{"smiles": "Fc1ccc(CSc2ncc(-c3ccccc3)nn2)cc1", "Potency": "inactive"}
{"smiles": "COc1ccc(CNc2ncnc3c2CN(c2ccccc2C)C(=O)CN3C)cc1", "Potency": "inconclusive: 28.2 µM [inhibitor, partial curve]"}
{"smiles": "COc1ccc(-n2cc3c(c2-c2cccc(Br)c2)c(=O)n(C)c(=O)n3C)cc1OC", "Potency": "inconclusive: 6.31 µM [inhibitor, partial curve, poor fit]"}
{"smiles": "Cc1ccccc1CN1C[C@H](O)C[C@H]1c1nc(-c2cccnc2)no1", "Potency": "inconclusive: 31.6 µM [inhibitor, partial curve, poor fit]"}
{"smiles": "COc1ccc(-c2cc(C(F)(F)F)nc(SCC(=O)NCc3ccc(F)cc3)n2)cc1", "Potency": "inconclusive: 12.6 µM [inhibitor, partial curve, poor fit]"}
{"smiles": "CCOC(=O)C(CNC(=O)c1nccnc1N)Cc1ccccc1", "note": "(stereo unspecified)", "Potency": "inconclusive: 22.4 µM [inhibitor, partial curve, poor fit]"}
{"smiles": "O=C(COCc1cc(-c2ccc3c(c2)OCO3)on1)Nc1cc(Cl)ccc1Cl", "Potency": "inconclusive: 28.2 µM [inhibitor, partial curve, poor fit]"}
{"smiles": "CN(C)C(=O)c1cc(-c2ccc(S(C)(=O)=O)cc2)nc2c1cnn2C", "Potency": "inconclusive: 89.1 µM [inhibitor, partial curve, poor fit]"}
{"smiles": "CCc1ccc(CNC(=O)c2cc3c(=O)oc4ccc(C)cc4c3s2)cc1", "activity change, negative = inhibition": "inconclusive: -46.1% [inhibitor]"}
{"smiles": "Cc1ccc(C(=O)c2cc3ccccc3o2)c(C)c1", "Potency": "inactive"}
{"smiles": "O=C(O)c1cccc(NC(=O)c2cccc(S(=O)(=O)Nc3cccc(C(=O)O)c3)c2)c1", "Potency": "inconclusive: 50.1 µM [inhibitor, single point]"}
{"smiles": "CCc1ccc2oc(C(=O)Nc3ccc(S(=O)(=O)Nc4cc(C)nc(C)n4)cc3)cc(=O)c2c1", "Potency": "inactive"}
{"smiles": "CC(C)c1ccc(Nc2nc3ccc(C(=O)c4ccccc4)cc3n3cnnc23)cc1", "Potency": "inconclusive: 35.5 µM [inhibitor, partial curve, poor fit]"}
{"smiles": "CN(C)c1ccc(NC(=O)c2ccc(N(C)C)cc2)cc1", "Potency": "inactive"}
{"smiles": "C[C@H](NC(=O)Cn1ccc2cc(OCc3ccccc3)ccc21)C(=O)O", "Potency": "inactive"}
{"smiles": "N#Cc1ccccc1N=Cc1ccccc1Cl", "Potency": "inactive"}
{"smiles": "CCOc1ccc(-c2cc(C(=O)NCCOC)c3ccccc3n2)cc1", "Potency": "inconclusive: 22.4 µM [inhibitor, partial curve, poor fit]"}
{"smiles": "O=C1N(c2ccccc2)c2ccccc2C12CCN(Cc1cncs1)C2", "note": "(stereo unspecified)", "Potency": "inactive"}
{"smiles": "CCn1cc(C(=O)N2CCN(c3ccccc3OC)CC2)c(=O)c2cc(S(=O)(=O)N3CCCCC3)ccc21", "activity change, negative = inhibition": "inconclusive: -32.5% [inhibitor]"}
{"smiles": "CCN1c2cc(C(=O)NCc3cccc(OC)c3OC)ccc2C(=O)N2CCCCC21", "note": "(stereo unspecified)", "Potency": "inconclusive: 22.4 µM [inhibitor, partial curve, poor fit]"}
{"smiles": "Cc1cccc(C(=O)Nc2ccccc2-c2nc(-c3ccccc3)no2)c1", "Potency": "inconclusive: 2.24 µM [inhibitor, full curve, poor fit]"}
{"smiles": "CCc1c(C)sc(NC(=O)C2CCCCC2)c1C#N", "Potency": "inconclusive: 35.5 µM [inhibitor, partial curve, poor fit]"}
{"smiles": "CCN(C(=O)C1CCCO1)C1CC1", "note": "(stereo unspecified)", "Potency": "inactive"}
{"smiles": "COC(=O)c1ccc2nc(CO[C@H]3CN(Cc4ccc5ccccc5n4)C[C@H]3F)[nH]c2c1", "Potency": "inconclusive: 28.2 µM [inhibitor, single point]"}
{"smiles": "CCCC(=O)N(c1ccc2oc(-c3ccccc3)c(C(=O)OCC)c2c1)S(=O)(=O)c1ccc(C)cc1", "Potency": "inconclusive: 15.8 µM [inhibitor, partial curve, poor fit]"}
{"smiles": "Cc1ccc(/C=C(\\C#N)c2nc(-c3cc4c(ccc5ccccc54)oc3=O)cs2)cc1", "Potency": "inconclusive: 12.6 µM [inhibitor, partial curve, poor fit]"}
{"smiles": "Cc1ccccc1Nc1nc(CSc2nnnn2C2CC2)cs1", "Potency": "inconclusive: 17.8 µM [inhibitor, partial curve, poor fit]"}
{"smiles": "CCCCN1CC(c2nc3ccccc3n2CCCCOc2c(C)cccc2C)CC1=O", "note": "(stereo unspecified)", "Potency": "inconclusive: 8.91 µM [inhibitor, partial curve, poor fit]"}
{"smiles": "CC(C)c1ccc(C(=O)N2CC(C(=O)NCCc3ccncc3)C3(CCOCC3)C2)cc1", "note": "(stereo unspecified)", "Potency": "inactive"}
{"smiles": "Cc1nn2c(c1-c1cccnc1N1CCOCC1)N(C(=O)C(C)C)CCC2", "Potency": "inconclusive: 35.5 µM [inhibitor, single point]"}
{"smiles": "Cc1ccc(Nc2nnc(SCc3nnc(C(C)(C)C)o3)s2)cc1", "Potency": "inactive"}
{"smiles": "CC1CSc2ccc(S(=O)(=O)NC3CCN(Cc4ccccc4)CC3)cc2NC1=O", "note": "(stereo unspecified)", "Potency": "inactive"}
{"smiles": "Cc1ccc(NC(=O)Cn2c(=O)n(-c3ccc(CC(=O)NCC4CCCO4)cc3)c(=O)c3ccccc32)cc1", "note": "(stereo unspecified)", "Potency": "inconclusive: 35.5 µM [inhibitor, single point]"}
{"smiles": "O=C1CC2(CCN(CC3CC3)CC2)Oc2cc(Cl)ccc21", "Potency": "inconclusive: 22.4 µM [inhibitor, partial curve]"}
{"smiles": "COC(=O)Cn1c2nc3ccccc3nc2c2cccc(C)c21", "Potency": "inconclusive: 39.8 µM [inhibitor, single point]"}
{"smiles": "Cc1ccc(-c2cc(=O)c3cc(NC(=O)c4ccco4)ccc3o2)cc1", "Potency": "inactive"}
{"smiles": "COc1ccccc1-c1cc(C(=O)N(C)C)nc2c1cnn2C", "Potency": "active: 89.1 µM"}
{"smiles": "CCn1cnnc1CC1CCN(C(=O)c2cc(-c3ccc(F)cc3)nc3ccccc23)CC1", "Potency": "active: 22.4 µM"}
{"smiles": "O=C(Cc1ccc(F)cc1)N1CCCN(c2nc3ncccc3o2)CC1", "Potency": "inactive"}
{"smiles": "COc1ccc(OCC(=O)Nc2cccc(-c3nc4cc(C)ccc4o3)c2)cc1", "Potency": "inconclusive: 1.78 µM [inhibitor, partial curve, poor fit]"}
{"smiles": "CN(CCCNC(=O)CN1CC2CC(C1)[C@H]1CCCC(=O)N1C2)C1CCCCC1", "note": "(stereo partly specified)", "Potency": "inactive"}
{"smiles": "Cc1cccn2cc(-c3cccc(NS(=O)(=O)c4ccc(Cl)c(Cl)c4)c3)nc12", "Potency": "inactive"}
{"smiles": "CC(CNC(=O)Cn1ccc2cc(S(=O)(=O)N3CCCCC3)ccc21)c1ccccc1", "note": "(stereo unspecified)", "Potency": "inconclusive: 31.6 µM [inhibitor, single point]"}
{"smiles": "COc1ccc(C2c3cccn3CCN2S(=O)(=O)c2ccccc2[N+](=O)[O-])cc1OC", "note": "(stereo unspecified)", "Potency": "inconclusive: 25.1 µM [inhibitor, single point]"}
{"smiles": "C=CCOc1ccc(C(c2c(O)nc(SC)[nH]c2=O)c2c(O)nc(SC)[nH]c2=O)cc1", "Potency": "inconclusive: 31.6 µM [inhibitor, partial curve, poor fit]"}
{"smiles": "Cc1ccc(-n2nnc(-c3nc(-c4ccccc4Cl)no3)c2C)cc1F", "Potency": "inactive"}
{"smiles": "O=c1c2c(n(Cc3cccnc3)n1-c1ccccc1)CN(Cc1ccc(O)cc1)CC2", "Potency": "inconclusive: 39.8 µM [inhibitor, single point]"}
{"smiles": "O=C1N(CCC2CCOC2)c2ccccc2NC12CCNCC2", "note": "(stereo unspecified)", "Potency": "inconclusive: 12.6 µM [inhibitor, partial curve]"}
{"smiles": "O=C(Nc1c(-c2ccc(F)cc2)nc2sccn12)c1cccc(S(=O)(=O)N2CCOCC2)c1", "Potency": "inactive"}
{"smiles": "CCC(C)(C)C1CCC(NC(=O)Cc2ccc(OC)c(OC)c2OC)CC1", "note": "(stereo unspecified)", "Potency": "inactive"}
{"smiles": "Cc1cccc(-c2nc(CCNC(=O)Cc3ccc(F)cc3)cs2)c1", "Potency": "inconclusive: 28.2 µM [inhibitor, single point]"}
{"smiles": "CCOC(C)c1ccc(-c2cc(C)n[nH]c2=O)cc1", "note": "(stereo unspecified)", "Potency": "inconclusive: 25.1 µM [inhibitor, single point]"}
{"smiles": "C#CCNC(=O)[C@@H]1Cc2cn(CC3CC3)c3cccc(c23)[C@H](CC(C)C)N1", "Potency": "inconclusive: 25.1 µM [inhibitor, partial curve]"}
{"smiles": "COc1ccc(-c2cc(C(F)F)n3ncc(C(=O)Nc4cc(OC)ccc4OC)c3n2)cc1", "activity change, negative = inhibition": "inconclusive: -306% [inhibitor] [at 11.5 µM]"}
{"smiles": "Cn1cc(S(=O)(=O)c2ccccc2)c(=O)c2cc(F)c(N3CCOCC3)cc21", "Potency": "inconclusive: 39.8 µM [inhibitor, partial curve, poor fit]"}
{"smiles": "N#C/C(=C\\c1ccc(Cl)cc1)C(=O)NCC1CCCO1", "note": "(stereo unspecified)", "Potency": "inconclusive: 31.6 µM [inhibitor, single point]"}
{"smiles": "CCOc1ccccc1C(=O)OCc1ccc(C#N)cc1", "Potency": "inactive"}
{"smiles": "CN(C)c1cccc(C(=O)N2CCC3(CC2)NC(=O)N(Cc2ccc(F)cc2)C3=O)c1", "Potency": "inactive"}
{"smiles": "COc1ccc(-c2c(C#N)c(SCC(=O)Nc3ccccc3C)nc(C)c2C(=O)Nc2ccccc2)cc1OC", "Potency": "inconclusive: 39.8 µM [inhibitor, partial curve, poor fit]"}
{"smiles": "C=CCOc1ccc2c(c1)c(=O)cc(C(=O)O)n2CC", "Potency": "inconclusive: 28.2 µM [inhibitor, partial curve, poor fit]"}
{"smiles": "CC(=O)c1cccc(NC(=O)Cn2c(SCC(=O)Nc3ccc(F)cc3)nc3ccccc32)c1", "Potency": "inconclusive: 11.2 µM [inhibitor, partial curve, poor fit]"}
{"smiles": "Cc1noc(C)c1-c1cc2cc(CN(C)C)oc2c(N2CCN(c3ccccn3)CC2)n1", "Potency": "inconclusive: 35.5 µM [inhibitor, partial curve]"}
{"smiles": "CC(C)(C)c1noc(-c2nnn3c2COC(c2ccc(Cl)cc2)C3)n1", "note": "(stereo unspecified)", "Potency": "inconclusive: 20 µM [inhibitor, single point]"}
